Results from PubChem BioAssay AID624417 (National Center for Advancing Translational Sciences (NCATS), 2012).
Out of some 410,000 compounds screened, about 6,400 (1.6%) were called active. The inconclusive results got no clear call from the source; some entries with a clear call stand among them for comparison. Calls follow the shape of the dose curve; as a rule, active = well fitted inhibition curve with a large enough effect; inconclusive = small, poorly fitted or top-dose-only effect; inactive = no such curve, though single readings can be large or run the other way. Potencies of inconclusive entries are left out as doubtful fits.

Target: Glucagon-like peptide 1 receptor (Homo sapiens) (UniProt P43220)
Sequence of UniProt P43220 (P43220 whole entry, looked up): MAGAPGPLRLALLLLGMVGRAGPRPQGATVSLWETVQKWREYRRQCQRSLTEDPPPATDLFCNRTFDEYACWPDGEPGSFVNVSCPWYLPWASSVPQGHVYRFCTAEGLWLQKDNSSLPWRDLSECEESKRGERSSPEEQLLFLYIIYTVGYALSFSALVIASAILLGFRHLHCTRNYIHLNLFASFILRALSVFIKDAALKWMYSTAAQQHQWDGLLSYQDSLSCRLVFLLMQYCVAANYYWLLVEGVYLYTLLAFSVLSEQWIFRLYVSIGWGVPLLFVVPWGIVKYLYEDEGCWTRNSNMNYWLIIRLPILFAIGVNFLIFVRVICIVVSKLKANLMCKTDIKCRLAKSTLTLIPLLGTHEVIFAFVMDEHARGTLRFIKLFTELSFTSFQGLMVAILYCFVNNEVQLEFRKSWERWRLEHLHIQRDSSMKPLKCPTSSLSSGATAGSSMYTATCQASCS
Experiment: qHTS of GLP-1 Receptor Inverse Agonists (Inhibition Mode); also: nearly all actives have a fitted effect of over 55% in size
Settings: HEK293 GLP-1R CRE-luciferase, luminescence, 24 h, GLP-1R form is constitutively active; activity change, negative = inhibition: at 38.3 µM (top of the series) unless noted
In short: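 Readout was luciferase luminescence, measured 12 min after detection reagent at room temperature. Beforehand, GLP-1R reporter HEK293 cells had sat 12 h, then received compounds for 24 hr at 37 deg C.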
% is scaled to controls: 0 for no effect and ±100 for the full control effect; potency is read from the fitted curve at half-maximal effect; tags tell the direction and shape of the fitted curve.

| SMILES | Potency | activity change, negative = inhibition |
| --- | --- | --- |
| COc1cccc(-c2nc(C(=O)NCCCN3CCOCC3)cc3c2[nH]c2ccccc23)c1 | inconclusive [inhibitor, single point] |  |
| COC(=O)[C@]12CCCCC=C1N(Cc1ccc3c(c1)OCO3)C(=O)[C@H](CC(=O)NCc1cccc3ccccc13)C2 | inconclusive [inhibitor, partial curve, poor fit] |  |
| C=CCN1C(=O)C(CC(=O)Nc2ccc(OCC)cc2)N(Cc2ccccn2)C1=S (stereo not given) | inconclusive [inhibitor, partial curve, poor fit] |  |
| O=S(=O)(NCC(c1cccs1)N1CCc2ccccc2C1)c1ccccc1 (stereo not given) | inconclusive [inhibitor, single point] |  |
| CC(C)Oc1cccc(-c2cc(C(=O)NC(=S)N(C)c3ccccc3C(=O)O)c3ccccc3n2)c1 |  | inactive: -3.21% |
| O=C(N[C@@H](Cc1ccccc1)C(=O)OCc1ccccc1)c1nc[nH]c1C(=O)N1CCc2ccccc2C1 |  | inactive: -0.375% |
| COCc1nc(-c2ccc(-c3ccc(OC)cc3)nc2OC)no1 |  | inactive: 9.71% |
| Cc1ccc(S(=O)(=O)N2CCN(C(=O)COC(=O)c3oc4ccccc4c3C)CC2)cc1 |  | inactive: 20.3% |
| CCCCCC(=O)Nc1cccc(C2=NOC3(C2)C[C@@H](C(N)=O)N(C(=O)CC(c2ccccc2)c2ccccc2)C3)c1 (stereo not given in full) | inconclusive [inhibitor, partial curve, poor fit] |  |
| Cc1cc(F)ccc1NCc1ccc([N+](=O)[O-])cc1 | inconclusive [inhibitor, single point] |  |
| CCc1ccc(NCc2cc3c(C)nn(-c4ccccc4)c3[nH]c2=O)cc1 | inconclusive [inhibitor, single point] |  |
| CCCc1cc(-c2[nH]ncc2-c2ccc(C(=O)OCC)o2)c(O)cc1O | inconclusive [inhibitor, single point] |  |
| CCc1nnc(NC(=O)c2cc(S(=O)(=O)N(CC)CC)ccc2Cl)s1 | inconclusive [inhibitor, single point] |  |
| O=C(c1ccccn1)N1N=C2/C(=C/c3ccc(F)cc3)CCCC2C1c1ccc(F)cc1 (stereo not given) | inconclusive [inhibitor, single point] |  |
| CCOC(=O)c1cccc(COC(=O)c2cccc(-c3nnc(-c4ccccc4)o3)c2)c1 | inconclusive [inhibitor, partial curve] |  |
| CC1=C(c2ccc(C)c(C)c2)S(=O)(=O)NC1=NCc1ccccc1Cl | inconclusive [inhibitor, partial curve] |  |
| Cc1ccc(Nc2nc(CSc3nnnn3C)cs2)cc1 |  | inactive: -12.8% |
| CC(C)NC(=O)Cn1nnc(-c2ccccc2)c1COc1ccc2ccccc2c1 |  | inactive: -27.4% |
| O=C(CC1c2ccccc2Oc2ccccc21)N1CCN(c2ccccn2)CC1 | inconclusive [inhibitor, partial curve, poor fit] |  |
| N/C(=N\OC(=O)COc1ccc(Cl)cc1Cl)c1ccccn1 | inconclusive [inhibitor, partial curve, poor fit] |  |

| SMILES | Potency | activity change, negative = inhibition |
| --- | --- | --- |
| CCOC(=O)N1CCN(S(=O)(=O)c2ccc(C)cc2)C1c1ccccc1 (stereo not given) | inconclusive [inhibitor, single point] |  |
| CC1=NN(C(N)=S)C(=O)C1N=Nc1cccc(C)c1 (stereo not given) | inconclusive [inhibitor, full curve, poor fit] |  |
| Clc1cccc(OCCCN2CCCC2)c1Cl |  | inactive: -16.7% |
| CCC(=O)N1CCN(c2c(Cl)cccc2[N+](=O)[O-])CC1 | inconclusive [inhibitor, single point] |  |
| CCCc1nc2ccccc2n1CCOc1ccccc1 | inconclusive [inhibitor, partial curve, poor fit] |  |
| CN(C)CCCNS(=O)(=O)c1ccc(-n2nnc3ccccc32)c([N+](=O)[O-])c1 | inconclusive [inhibitor, partial curve, poor fit] |  |
| O=C(Nc1cccc(Cl)c1)c1cccc(Oc2ccc([N+](=O)[O-])cc2Cl)c1 | inconclusive [inhibitor, partial curve, poor fit] |  |
| COc1ccc(OC)c(C2C3=C(N=C4SCC(=O)N42)c2ccccc2CC3)c1 (stereo not given) | inconclusive [inhibitor, partial curve, poor fit] |  |
| O=C(O)CNCC1COc2ccccc2O1 (stereo not given) |  | inactive: -1.6% |
| O=C(NC(=S)Nc1ccccc1N1CCCCC1)c1cccs1 | inconclusive [inhibitor, single point] |  |
| CC(CC(=O)Nc1ccc(Cl)c([N+](=O)[O-])c1)c1ccccc1 (stereo not given) | inconclusive [inhibitor, single point] |  |
| C=CCSc1nnc(-c2cnn(-c3ccccc3)c2-n2cccc2)n1C | inconclusive [inhibitor, single point] |  |
| CCC/C(O)=C1\C(=O)CC(C)(C)CC1=Nc1ccccc1OC | inconclusive [inhibitor, partial curve] |  |
| O=C(Nc1cc(S(=O)(=O)N2CCOCC2)ccc1Cl)c1cc([N+](=O)[O-])ccc1Cl | inconclusive [inhibitor, partial curve, poor fit] |  |
| CN1CCN(/N=C/c2ccc(N(C)c3ccccc3)cc2)CC1 | inconclusive [inhibitor, full curve] |  |
| CCCNC(=O)N1CCN(C(c2ccccc2)c2ccccc2)CC1 | inconclusive [inhibitor, single point] |  |
| Oc1ccccc1CNc1ccc(OC(F)(F)F)cc1 | inconclusive [inhibitor, single point] |  |
| Cc1ccc(-c2nc(N/N=C/c3ccccc3[N+](=O)[O-])c3ccccc3n2)cc1 |  | inactive: 0% |
| CCC(=O)N1CCN(c2ccc(NC(=O)COc3cccc(C)c3C)cc2)CC1 | inconclusive [inhibitor, single point] |  |
| CCN=c1sc2ccccc2n1CC(O)COc1ccccc1 (stereo not given) | inconclusive [inhibitor, partial curve, poor fit] |  |
